Assay results as given in the antibiotic and cytotoxicity screens of Wong et al. (2023).
Some of the results follow.

test system: HepG2; assay: cytotoxicity call (relative viability < 0.9); details: 10 µM

Compound	cytotoxicity call
COc1ccc(CN(C)C[C@@H]2OCCCC[C@H](C)Oc3ccc(NC(=O)CCC(F)(F)F)cc3C(=O)N([C@@H](C)CO)C[C@H]2C)cc1	inactive
CC(C)CC#Cc1ccc2c(c1)O[C@@H](CN(C)C(=O)Cc1ccccn1)[C@@H](C)CN([C@@H](C)CO)S2(=O)=O	inactive
CC(=O)NCCCS(=O)(=O)[O-].CC(=O)NCCCS(=O)(=O)[O-].[Ca+2]	inactive
C[C@@H]1CN([C@@H](C)CO)C(=O)c2cc(-c3cccnc3)cnc2O[C@H]1CN(C)Cc1ccc(-c2ccccc2)cc1	inactive
NCc1cccc(-n2cccn2)c1	inactive
O=C(O)CCCCN(CCc1ccccc1OCc1ccc(CCc2ccccc2)cc1)Cc1ccc(C(=O)O)cc1	inactive
C[C@@H]1CN([C@H](C)CO)C(=O)c2cc(NC(=O)Nc3ccc4c(c3)OCO4)ccc2O[C@@H]1CN(C)C(=O)Nc1cccc2ccccc12	inactive
CNC[C@@H]1Oc2c(NS(=O)(=O)c3cn(C)cn3)cccc2C(=O)N([C@@H](C)CO)C[C@H]1C	inactive
NCC[C@H]1CC[C@@H](NC(=O)C2CCCCC2)[C@H](CO)O1	inactive
Cl.NCCCCC(N)C(=O)O (stereo not given)	inactive
C[C@@H]1CCCCO[C@H](CN(C)C(=O)Nc2ccc(F)cc2)[C@@H](C)CN([C@@H](C)CO)C(=O)c2cc(NC(=O)c3ccncc3)ccc2O1	inactive
C[C@@H]1CCCCO[C@H](CN(C)C(=O)Cc2ccccc2)[C@H](C)CN([C@@H](C)CO)C(=O)c2cc(NC(=O)Nc3ccc4c(c3)OCO4)ccc2O1	inactive
C[C@H](CO)N1C[C@H](C)[C@@H](CN(C)Cc2ccc(C(F)(F)F)cc2)OCCCC[C@H](C)Oc2ccc(NC(=O)c3ccccc3)cc2C1=O	inactive
C[C@H](CO)N1C[C@H](C)[C@H](CN(C)C(=O)Nc2ccccc2)OCCCC[C@H](C)Oc2ccc(NS(=O)(=O)c3cccs3)cc2C1=O	inactive
C[C@H]1CCCCO[C@@H](CN(C)Cc2ccc3c(c2)OCO3)[C@@H](C)CN([C@@H](C)CO)C(=O)c2cc(NC(=O)Nc3ccc(F)cc3)ccc2O1	inactive
CCOc1ccc(Cc2nccc3cc(OCC)c(OCC)cc23)cc1OCC.Cl	active
C[C@@H]1CN([C@H](C)CO)C(=O)c2c(c3ccccc3n2C)-c2ccccc2CO[C@@H]1CN(C)Cc1ccccc1C(F)(F)F	inactive
C[C@H]1CN([C@@H](C)CO)C(=O)Cc2cc(NC(=O)Nc3ccc(C(F)(F)F)cc3)ccc2O[C@H]1CN(C)C(=O)Nc1ccc(C(F)(F)F)cc1	active
C[C@H](CO)N1C[C@H](C)[C@H](CN(C)S(C)(=O)=O)Oc2ccc(NC(=O)CCCN(C)C)cc2CC1=O	inactive
C[C@H](CO)N1C[C@H](C)[C@@H](CN(C)C(=O)NC2CCCCC2)Oc2c(NC(=O)Nc3cccc4ccccc34)cccc2C1=O	inactive

Compound	cytotoxicity call
COc1ccc(S(=O)(=O)N(C)C[C@@H]2Oc3c(NC(=O)C4CCOCC4)cccc3C(=O)N([C@H](C)CO)C[C@@H]2C)cc1	inactive
COc1cc(O)c(C(C)=O)c(OC)c1	inactive
Cc1noc(C)c1NC(=O)Nc1cccc2c1O[C@H](CN(C)Cc1ccc(-c3ccccc3)cc1)[C@@H](C)CN([C@@H](C)CO)C2=O	inactive
C[C@@H]1CN([C@@H](C)CO)C(=O)c2cc(NS(=O)(=O)c3cn(C)cn3)ccc2O[C@H]1CN(C)S(=O)(=O)c1cccs1	active
COc1ccc2c3c(n(c2c1)C)[C@@H](CO)N(C[C@]13CCN(CC1)C(=O)CN1CCOCC1)C(=O)Nc1ccc(cc1)F	inactive
Cc1ccc(S(=O)(=O)N(C)C[C@@H]2OCCCC[C@@H](C)Oc3ccc(NS(C)(=O)=O)cc3C(=O)N([C@@H](C)CO)C[C@H]2C)cc1	inactive
CCOc1nc2cccc(C(=O)O)c2n1Cc1ccc(-c2ccccc2-c2nnn[nH]2)cc1	inactive
C[C@H]1CN([C@@H](C)CO)C(=O)c2cc(NC(=O)Cc3cn(C)c4ccccc34)ccc2O[C@H]1CN(C)Cc1ccc(C(=O)Nc2ccccc2N)cc1	inactive
Cc1ccc(NC(=O)N(C)C[C@@H]2OCCCC[C@H](C)Oc3ccc(NC(=O)C4CCCCC4)cc3C(=O)N([C@H](C)CO)C[C@@H]2C)cc1	inactive
C[C@H](CO)N1C[C@H](C)[C@@H](CN(C)C(=O)CCC(F)(F)F)OCCCC[C@H](C)Oc2ccc(NS(=O)(=O)c3ccc(Cl)cc3)cc2C1=O	inactive
CCCNC(=O)N(C)C[C@@H]1Oc2cc(C#Cc3cccc(F)c3)ccc2S(=O)(=O)N([C@H](C)CO)C[C@@H]1C	inactive
CCCNC(=O)N1C[C@@H](O)COC[C@@H]2O[C@@H](CC(=O)N3CCN(C)CC3)CC[C@H]21	inactive
Cc1cncc2cccc(S(=O)(=O)N[C@H]3CN[C@H](COC(=O)NCCOCCOCCN)C3)c12	inactive
C[C@@H]1CCCCO[C@@H](CN(C)Cc2ccc(Cl)c(Cl)c2)[C@@H](C)CN([C@@H](C)CO)C(=O)c2cc(NC(=O)Nc3cccc4ccccc34)ccc2O1	active
CCC(C)(C)NC(=N)NC#N	inactive
COc1ccccc1-c1cnc2c(c1)C(=O)N([C@H](C)CO)C[C@@H](C)[C@H](CN(C)C(=O)c1cccnc1)O2	inactive
NC(=O)C1CCN(C(=O)c2ccco2)CC1	inactive
C[C@@H]1CN([C@@H](C)CO)C(=O)c2cc(NC(=O)Cn3cnnn3)ccc2O[C@@H]1CN(C)S(=O)(=O)c1cn(C)cn1	inactive
Cc1ccc(S(=O)(=O)N(C)C[C@H]2Oc3ncc(-c4ccncc4)cc3C(=O)N([C@@H](C)CO)C[C@H]2C)cc1	inactive
COc1ccc(-c2cccc(-c3nc(C(=O)NCC(F)(F)F)cc4c3[C@H](CCO)N([S@@](=O)C(C)(C)C)C4)c2)cc1	inactive
